# The list shows a part of the results.
# Legend:
# Assay in all cases: glycan array binding signal (z-score within array); higher = stronger binding
# Conditions in all cases: glycan notation: IUPAC condensed, linker removed
# [1] = molecular target: GlcNAc(a1-4)Gal(b1-4)GlcNAc(b1-3)Gal(b1-4)Glc
# Summary of the method: (§1)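 The binding signal is a Z-score computed within each array. Data were drawn from 3228 arrays in the Consortium for Functional Glycomics database, restricted to those with a known protein sequence. Scores were averaged over arrays of the same protein sequence at different concentrations or buffers, and over linkers, and negative values can be taken as non-binding.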
# [2] = molecular target: GlcNAc(a1-4)Gal(b1-4)GlcNAc(b1-3)Gal(b1-4)GlcNAc
# Summary of the method: as §1
# [3] = molecular target: GlcNAc(a1-4)Gal(b1-4)GlcNAc(b1-3)Gal(b1-4)GlcNAc(b1-3)Gal(b1-4)GlcNAc
# Summary of the method: as §1
# [4] = molecular target: GlcNAc(a1-4)Gal(b1-4)GlcNAc(b1-3)Gal(b1-4)[Fuc(a1-3)]GlcNAc(b1-3)Gal(b1-4)[Fuc(a1-3)]GlcNAc
# Summary of the method: as §1
# [5] = molecular target: GlcNAc(a1-6)Gal(b1-4)GlcNAc
# Summary of the method: as §1
# [6] = molecular target: GlcNAc(b1-2)Gal(b1-3)GalNAc
# Summary of the method: as §1
# [7] = molecular target: GlcNAc(b1-2)Man(a1-3)[GlcNAc(b1-2)Man(a1-6)]Man(b1-4)GlcNAc(b1-4)GlcNAc
# Summary of the method: as §1
# [8] = molecular target: GlcNAc(b1-2)Man(a1-3)[GlcNAc(b1-2)Man(a1-6)]Man(b1-4)GlcNAc(b1-4)[Fuc(a1-6)]GlcNAc
# Summary of the method: as §1
# [9] = molecular target: GlcNAc(b1-2)Man(a1-3)[GlcNAc(b1-4)][GlcNAc(b1-2)Man(a1-6)]Man(b1-4)GlcNAc(b1-4)GlcNAc
# Summary of the method: as §1
# [10] = molecular target: GlcNAc(b1-2)[GlcNAc(b1-4)]Man(a1-3)[GlcNAc(b1-2)Man(a1-6)]Man(b1-4)GlcNAc(b1-4)GlcNAc
# Summary of the method: as §1
# [11] = molecular target: GlcNAc(b1-2)[GlcNAc(b1-4)]Man(a1-3)[GlcNAc(b1-4)][GlcNAc(b1-2)Man(a1-6)]Man(b1-4)GlcNAc(b1-4)GlcNAc
# Summary of the method: as §1
# [12] = molecular target: GlcNAc(b1-2)[GlcNAc(b1-4)]Man(a1-3)[GlcNAc(b1-4)][GlcNAc(b1-2)[GlcNAc(b1-6)]Man(a1-6)]Man(b1-4)GlcNAc(b1-4)GlcNAc
# Summary of the method: as §1
# [13] = molecular target: GlcNAc(b1-2)[GlcNAc(b1-6)]Man(a1-6)[GlcNAc(b1-2)Man(a1-3)]Man(b1-4)GlcNAc(b1-4)GlcNAc
# Summary of the method: as §1
# [14] = molecular target: GlcNAc(b1-2)[GlcNAc(b1-6)]Man(a1-6)[GlcNAc(b1-2)Man(a1-3)][GlcNAc(b1-4)]Man(b1-4)GlcNAc(b1-4)GlcNAc
# Summary of the method: as §1
# [15] = molecular target: GlcNAc(b1-3)Gal
# Summary of the method: as §1
# [16] = molecular target: GlcNAc(b1-3)Gal(b1-3)GalNAc
# Summary of the method: as §1
# [17] = molecular target: GlcNAc(b1-3)Gal(b1-4)Glc
# Summary of the method: as §1
# [18] = molecular target: GlcNAc(b1-3)Gal(b1-4)GlcNAc
# Summary of the method: as §1
# [19] = molecular target: GlcNAc(b1-3)Gal(b1-4)GlcNAc(b1-3)Gal(b1-4)GlcNAc
# Summary of the method: as §1
# [20] = molecular target: GlcNAc(b1-3)GalNAc
# Summary of the method: as §1
# [21] = molecular target: GlcNAc(b1-3)Man
# Summary of the method: as §1
# [22] = molecular target: GlcNAc(b1-3)[GlcNAc(b1-4)][GlcNAc(b1-6)]GlcNAc
# Summary of the method: as §1
# [23] = molecular target: GlcNAc(b1-3)[GlcNAc(b1-6)]Gal(b1-4)GlcNAc
# Summary of the method: as §1
# [24] = molecular target: GlcNAc(b1-3)[GlcNAc(b1-6)]GalNAc
# Summary of the method: as §1
# [25] = molecular target: GlcNAc(b1-4)Gal(b1-4)GlcNAc
# Summary of the method: as §1
# [26] = molecular target: GlcNAc(b1-4)GlcNAc
# Summary of the method: as §1
# [27] = molecular target: GlcNAc(b1-4)GlcNAc(b1-4)GlcNAc
# Summary of the method: as §1
# [28] = molecular target: GlcNAc(b1-4)GlcNAc(b1-4)GlcNAc(b1-4)GlcNAc(b1-4)GlcNAc
# Summary of the method: as §1
# [29] = molecular target: GlcNAc(b1-4)GlcNAc(b1-4)GlcNAc(b1-4)GlcNAc(b1-4)GlcNAc(b1-4)GlcNAc
# Summary of the method: as §1
# [30] = molecular target: GlcNAc(b1-4)[GlcNAc(b1-6)]GalNAc
# Summary of the method: as §1
# [31] = molecular target: GlcNAc(b1-6)Gal(b1-4)GlcNAc
# Summary of the method: as §1
# [32] = molecular target: GlcNAc(b1-6)GalNAc
# Summary of the method: as §1
# [33] = molecular target: GlcNAc3Prop(b1-4)GlcNAc
# Summary of the method: as §1
# [34] = molecular target: GlcNAc6S(b1-3)Gal(b1-4)GlcNAc
# Summary of the method: as §1
# [35] = molecular target: Kdn(a2-3)Gal(b1-3)GalNAc
# Summary of the method: as §1
# [36] = molecular target: Kdn(a2-3)Gal(b1-3)GlcNAc
# Summary of the method: as §1
# [37] = molecular target: Kdn(a2-3)Gal(b1-4)Glc
# Summary of the method: as §1
# [38] = molecular target: Kdn(a2-3)Gal(b1-4)GlcNAc
# Summary of the method: as §1
# [39] = molecular target: Kdn(a2-3)Gal(b1-4)[Fuc(a1-3)]GlcNAc
# Summary of the method: as §1
# [40] = molecular target: Kdn(a2-6)Gal(b1-4)GlcNAc
# Summary of the method: as §1
# [41] = molecular target: Man(a1-2)Man(a1-2)Man(a1-3)Man
# Summary of the method: as §1
# [42] = molecular target: Man(a1-2)Man(a1-2)Man(a1-6)[Man(a1-3)]Man
# Summary of the method: as §1
# [43] = molecular target: Man(a1-2)Man(a1-3)Man
# Summary of the method: as §1
# [44] = molecular target: Man(a1-2)Man(a1-3)[Man(a1-2)Man(a1-6)]Man
# Summary of the method: as §1
# [45] = molecular target: Man(a1-2)Man(a1-3)[Man(a1-2)Man(a1-6)]Man(a1-6)[Man(a1-2)Man(a1-2)Man(a1-3)]Man
# Summary of the method: as §1
binder,measurement,setting,value
"AFL (Aspergillus fumigatus), Q4WW81 (protein) STPGAQQVLFRTGIAAVNLTNHLRVYFQDVYGSIRESLYEGSWANGTEKNVIGNAKLGSPVAATSKELKHIRVYTLTEGNTLQEFAYDSGTGWYNGGLGGAKFQVAPYSRIAAVFLAGTDALQLRIYAQKPDNTIQEYMWNGDGWKEGTNLGGALPGTGIGATSFRYTDYNGPSIRIWFQTDDLKLVQRAYDPHKGWYPDLVTIFDRAPPRTAIAATSFGAGNSSIYMRIYFVNSDNTIWQVCWDHGKGYHDKGTITPVIQGSEVAIISWGSFANNGPDLRLYFQNGTYISAVSEWVWNRAHGSQLGRSALPPA",glycan array binding signal (z-score),[1],-0.385
same,glycan array binding signal (z-score),[2],-0.31
same,glycan array binding signal (z-score),[3],-0.384
same,glycan array binding signal (z-score),[4],0.788
same,glycan array binding signal (z-score),[5],-0.371
same,glycan array binding signal (z-score),[6],-0.383
same,glycan array binding signal (z-score),[7],-0.371
same,glycan array binding signal (z-score),[8],1.17
same,glycan array binding signal (z-score),[9],-0.38
same,glycan array binding signal (z-score),[10],-0.377
same,glycan array binding signal (z-score),[11],-0.381
same,glycan array binding signal (z-score),[12],-0.387
same,glycan array binding signal (z-score),[13],-0.383
same,glycan array binding signal (z-score),[14],-0.384
same,glycan array binding signal (z-score),[15],-0.361
same,glycan array binding signal (z-score),[16],-0.378
same,glycan array binding signal (z-score),[17],-0.386
same,glycan array binding signal (z-score),[18],-0.39
same,glycan array binding signal (z-score),[19],-0.387
same,glycan array binding signal (z-score),[20],-0.386
same,glycan array binding signal (z-score),[21],-0.384
same,glycan array binding signal (z-score),[22],-0.383
same,glycan array binding signal (z-score),[23],-0.39
same,glycan array binding signal (z-score),[24],-0.363
same,glycan array binding signal (z-score),[25],-0.384
same,glycan array binding signal (z-score),[26],-0.384
same,glycan array binding signal (z-score),[27],-0.384
same,glycan array binding signal (z-score),[28],-0.38
same,glycan array binding signal (z-score),[29],-0.382
same,glycan array binding signal (z-score),[30],-0.386
same,glycan array binding signal (z-score),[31],-0.379
same,glycan array binding signal (z-score),[32],-0.386
same,glycan array binding signal (z-score),[33],-0.389
same,glycan array binding signal (z-score),[34],-0.375
same,glycan array binding signal (z-score),[35],-0.376
same,glycan array binding signal (z-score),[36],-0.381
same,glycan array binding signal (z-score),[37],-0.393
same,glycan array binding signal (z-score),[38],-0.381
same,glycan array binding signal (z-score),[39],-0.35
same,glycan array binding signal (z-score),[40],-0.388
same,glycan array binding signal (z-score),[41],-0.388
same,glycan array binding signal (z-score),[42],-0.386
same,glycan array binding signal (z-score),[43],-0.381
same,glycan array binding signal (z-score),[44],-0.386
same,glycan array binding signal (z-score),[45],-0.384

# Reference: the supplement of paper PMC8728848
